# Experimental data: the supplement of paper PMC11417369
# ± gives the standard deviation of the averaged measurements. The list shows a part of the results.
# Tested on: PfAP2-G AP2 domain (GST-tagged)
# Assay: gcPBM binding intensity (ln(normalized median fluorescence intensity)); higher = stronger DNA binding
# Summary of the method: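 The highest Masliner-normalised natural-log median intensity across replicate spots of either probe orientation is reported as binding intensity. GST-tagged P. falciparum DNA-binding domains expressed in E. coli were applied for 1 h to an Agilent 4 × 180k array of primer-extended double-stranded 36-bp intergenic genomic probes plus negative controls, and bound protein was detected with Alexa488 anti-GST antibody and scanned at 488 nm.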
row,Sequence,gcPBM binding intensity (ln)
1,GTACAAAAAAAAATAAAATACATATATATATATATA [GTGCAC_negctrl_site364],10.6 ± 0.57
2,CACTTTTCTGGAAAAATTCCCACATTTTTTTATTAA [GTGCAC_negctrl_site322],10.3 ± 0.27
3,AAAAAAAAAAAAAACACACACACACGCATAAATATA [CACACA_site6217],10.2 ± 0.2
4,AAAAAATTCATATATACACACACGCACATATATATA [CACACA_site4226],10 ± 0.13
5,AAAATATTTCATATATGTACTTAAAAAAAAAAAAAA [XGTACX_site5399],11.2 ± 1
6,TATTATATATATGTTGACATATTTGTACACTCCACT [TGCATGCA_negctrl_site200],11.1 ± 0.84
7,GAATATATAAGATACACACACAAATTAAATATAAAA [CACACA_site2781],10.095 ± 0.007
8,CATATAATATAATTATGTACATATATAATAATATAC [XGTACX_site5278],11.2 ± 0.69
9,AAAAAAAAAAAAAAACGTACACATATTATGTTATTT [XGTACX_site5264],11.5 ± 1
10,GATAAAGTACTTTATACACACAAATATTTATTTATA [CACACA_site7795],11.1 ± 0.7
11,TCTTCATATAAGAACACATGCAGATTTTTATTATTG [TGCATGCA_site682],10.2 ± 0.17
12,TTATGTAAAAAAAAAAAAAAAAAAAAAAAAAAAAAA [CACACA_negctrl_site984],9.65 ± 0.37
13,AAAAAAAAGTTGTATTGTACAAAAAAAAAAAAAAAA [XGTACX_site8334],10.8 ± 0.83
14,TCATAAAAACTAATACGTACTTAAAAATATGAACTT [XGTACX_site2939],11.3 ± 0.71
15,TTTATATAACAACAAAATGGAAATATATATGTATGT [TGCATGCA_negctrl_site98],9.96 ± 0.11
16,TATTTACAAAAAAAATATAAAAAATATAAAATATAT [CACACA_negctrl_site575],9.36 ± 0.32
17,TGTATAATATTTGGTGCACACAAATTAACAACTGTT [CACACA_site9245],10.7 ± 0.6
18,AATATTAAAATAAAAAGTACTTATTTATGTATGTTG [XGTACX_site2682],11.2 ± 0.64
19,AAAAAAAAAAAAGAACGTACAAATTAATTTATAGAA [XGTACX_site5584],11.2 ± 0.83

row,Sequence,gcPBM binding intensity (ln)
1,TGTTTATTACTCAGGTGTACTCAATTTTTTTTTTTT [XGTACX_site3470],11.5 ± 0.86
2,CAGACATATTAAAAGAGTACATATATATATATATAT [XGTACX_site1158],11.4 ± 0.93
3,TAATATTGACTATATACACACATATATATATATATA [CACACA_site575],10.1 ± 0.35
4,TACACAAATATATACATACACACATATATACGCATA [CACACA_site394],10.1 ± 0.13
5,AAATGAATAAATAGGTCACACACAAATATATATAAA [CACACA_site8764],10.4 ± 0.36
6,ATATATATATATATATGTACATATACATATGTGCAA [XGTACX_site5604],11.2 ± 0.45
7,AATAAATAAAGAAGTACACACATATATATATATATA [CACACA_site4314],11.7 ± 1.1
8,TATTTTTAAAATATAAGTAAAAAAATAATATAAACT [TGCATGCA_negctrl_site283],10.1 ± 0.11
9,AGTACATTTTTGTGTGTGCACTAATATTATATACTT [GTGCAC_site9568],10.8 ± 0.56
10,TAATTTCTTAGGTATTGTACAAATATTATATGATAT [XGTACX_site256],10.9 ± 0.42
11,ATATATCTATAAAAGGCTTCCCACTTTTTTTGTCAA [TGCATGCA_negctrl_site332],9.78 ± 0.16
12,ATAATAAAAAAAATTAGTACATATATAAATATAAAT [XGTACX_site1937],11.1 ± 0.73
13,ATTCTACCACGCGATATACACACTTGTAGACATCTT [CACACA_site188],10.3 ± 0.2
14,TATAATGTATGTAGTGCACACCTCTATAATATATTA [CACACA_site8560],10.6 ± 0.3
15,AAATTTATGTGTGCCTGTACATATCAAAGATTTAAG [XGTACX_site8547],10.9 ± 0.54
16,CGCAATTAAAATATGTGTCCTCATTTTATAACATTT [XGTACX_site5340],11.2 ± 0.65
17,ATTTATTTTATTTTCACACACAAAAATAAATATCCG [CACACA_site2414],10.07 ± 0.099
18,ATAAAAAAAAAAAAAAGTACACATATAAAAGTATTG [XGTACX_site8265],11.6 ± 0.91
19,TAAATAATATCTATCACACACGCATAAATACAGATA [CACACA_site5449],9.995 ± 0.035

row,Sequence,gcPBM binding intensity (ln)
1,CTAAATTGTTAATAGAGTACATTTGTATAATATAAG [XGTACX_site594],11.1 ± 0.73
2,GTGTACAAAATATGGTAATAAAGTAGTTACATGAAT [CACACA_negctrl_site1775],11 ± 0.58
3,TATGTGAAATAAGGATGTACAATTTTGATTTCCCCA [XGTACX_site8389],11.1 ± 0.44
4,AATAAAATATAATAATTAATATATATATATATATAA [GTGCAC_negctrl_site457],9.47 ± 0.11
5,TTATGTTGTAAATACACACATACATATACATACACA [CACACA_site733],10.3 ± 0.15
6,TACGTTGTATATTTTTGTACATATTGAATTACAAAA [XGTACX_site5906],10.8 ± 0.54
7,TTTAATGAAAGAAACACATACGTATCAAAATATATG [TGCATGCA_negctrl_site510],10.5 ± 0.17
8,TTTTAATAATTTATAAAAAAAAAAAAAAAATAAATA [TGCATGCA_negctrl_site419],9.52 ± 0.15
9,GGATAAAAAATATGTACACACATATAGATATCTATA [CACACA_site2693],11.4 ± 0.79
10,GTTTACATCATTCTGGTGCAAAAAAAAAAAAAAATA,10.1 ± 0.41
11,TAGATTTAAAAAAAAAAAAAATTTTTTTTTTTTTTT [TGCATGCA_negctrl_site593],9.9 ± 0.18
12,GAATACTCATTTCTTTGTACATATATATGTGTATTT [XGTACX_site6411],11.1 ± 0.58
13,ATACAAGTATTAATTACACACTCAAAAAGAAAAAAC [CACACA_site5287],10.2 ± 0.26
14,GAACAATATATTTGCACACAAAAAATATATATTTAT [CACACA_site3317],10.2 ± 0.24
15,TTCATATGGAATAAAAGTACGTATTAAAACAATTTT [XGTACX_site8742],11.1 ± 0.59
16,CTTTTTAATTTATCGACACACGCATGAATAGAAATT [CACACA_site9112],10.2 ± 0.28
17,CATATAAACAATAACACACACCTAGGTACATGGAAA [CACACA_site4615],10.9 ± 0.48
18,AAAGCAAATAATAAGTGTACGGGTCAATATATGCGT [XGTACX_site1519],11.3 ± 0.73
